From PubChem BioAssay AID686978 (National Center for Advancing Translational Sciences (NCATS), 2013)
In all, about 420,000 compounds went through this assay and about 64,000 (15%) were called active. The shares of active, inactive and inconclusive entries below differ from those in the screen. The call rests on the fitted dose curve; in most records, active means well fitted inhibition curve with a large enough effect; inconclusive means small, poorly fitted or top-dose-only effect; inactive means flat fitted curve, though single readings scatter. No potency is given beside an inconclusive call; the fits are too rough.
On the % scale 0 is the no-effect control and ±100 the full control effect; potency means the concentration at half of the fitted maximal effect; tags describe the fitted curve by direction and shape.

Test: qHTS for Inhibitors of human tyrosyl-DNA phosphodiesterase 1 (TDP1): qHTS in cells in absence of CPT; further: nearly all actives have a fitted effect of over 55% in size
Conditions: DT40 Tdp1-/- hTDP1 cells, no CPT, ATP luminescence, 48 h; activity change, negative = growth inhibition: at 46.2 µM (top of the series) unless noted
Method in brief: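 Readout: luminescence from CellTiter-Glo after 30 min in the dark at RT. Cells: DT40 Tdp1-/- with stable hTDP1, 400/well. Exposure: compounds alone, ≥48 hr, 37 °C.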
For `CC(C)(C)CC(=O)Nc1cc(S(=O)(=O)N2CCCCCC2)ccc1Cl`, the Potency was inconclusive [inhibitor, partial curve]. In the case of `COc1cccc(C(=O)C2CCCN(C(=O)CCC3=NNC(=O)CC3)C2)c1` (configuration not stated), the Potency is reported as “inactive”. In the case of `CCOc1ccc(CNC(=O)Cc2ccc(NC(=O)N3CCCCc4ccccc43)cc2)cc1OC`, the Potency is reported as inconclusive [inhibitor, partial curve]. With `O=C(CCCc1ccccc1)NCCS(=O)(=O)N1CCN(c2ccccc2)CC1` the Potency was inconclusive [inhibitor, full curve, poor fit]. With `CNC(=O)c1ncoc1-c1ccc(Cl)cc1` the Potency was inconclusive [inhibitor, partial curve, poor fit]. With `COc1ccc(NC(=O)CCC(=O)NCc2ccco2)c([N+](=O)[O-])c1` the Potency was “inactive”. With `CC1C(=O)N(Cc2cn(Cc3ccco3)nn2)CCS(=O)(=O)N1Cc1ccc(-c2cccnc2)cc1` (configuration not stated) the Potency was inconclusive [inhibitor, single point]. In the case of `Cc1cc(C)c(C(=O)CSc2nc(C)cc(=O)[nH]2)c(C)c1`, the Potency is reported as “inactive”. In the case of `Nc1[nH]n(-c2ccccc2)c(=O)c1N=Nc1ccc2c(c1)OCO2`, the Potency is reported as inconclusive [inhibitor, partial curve]. In the case of `Cc1ccc2[nH]c(=O)c(CN(CCCN(C)C)C(=O)Nc3ccc(F)cc3)cc2c1`, the Potency is reported as active: 13 µM. In the case of `Cc1c(C(=O)N(C)Cc2cccc(F)c2)oc2c(Cl)cccc12`, the Potency is reported as inconclusive [inhibitor, single point]. With `CCc1ccc(NC2Nc3cc(C)nn3S2)cc1` (configuration not stated) the Potency was “inactive”. In the case of `Cc1cc(NCCCN2CCOCC2)n2ncc(-c3ccccc3)c2n1`, the Potency is reported as inconclusive [inhibitor, single point]. For `Cc1cccc(NC(=O)COc2coc(CN3CCN(Cc4ccccc4)CC3)cc2=O)c1`, the Potency was inconclusive [inhibitor, single point]. In the case of `O=c1c(C=NCC2CCCO2)c(-c2ccccc2)[nH]n1-c1ccc([N+](=O)[O-])cc1` (configuration not stated), the Potency is reported as inconclusive [inhibitor, single point]. With `CCN(CC)CCn1c2c(c(SCC(=O)Nc3nc(C)cs3)nc1=O)CCCC2` the Potency was “inactive”. With `CCOc1ccc(/C=C(/NC(=O)c2ccccc2)C(=O)NCCC(=O)O)cc1` the Potency was “inactive”. In the case of `Cc1ccc(CSc2nc3c(c(=O)[nH]2)CCC3)cc1`, the Potency is reported as “inactive”. For `CCOP(=O)(OCC)C(C)(C)NC(=O)Nc1ccc(Cl)c(Cl)c1`, the Potency was inconclusive [inhibitor, single point]. For `CCCCC(=O)Nc1nc(C)c(-c2csc(Nc3ccccc3OC)n2)s1`, the Potency was inconclusive [inhibitor, single point]. In the case of `Cc1noc(C)c1COc1ccc(C(=O)NCc2cccs2)cc1`, the Potency is reported as “inactive”. In the case of `CCCOc1cc(C)c(S(=O)(=O)NC2CC(C)(C)NC(C)(C)C2)cc1C`, the Potency is reported as inconclusive [inhibitor, single point]. With `O=C(c1ccc(CNS(=O)(=O)c2ccc(Br)cc2)cc1)N1CCCCCC1` the Potency was inconclusive [inhibitor, partial curve]. For `CCCCN(C(C)=O)c1c(CC)nc2ccc(C(=O)NCCCN(C)C)cn12`, the Potency was inconclusive [inhibitor, single point]. For `COc1ccc(CCn2c(=O)c3cccnc3n(CC(=O)Nc3c(C)cc(C)cc3C)c2=O)cc1OC`, the Potency was inconclusive [inhibitor, full curve]. For `COCCCNC(=O)c1cccc2c(-c3cccc(C(N)=O)c3)coc12`, the Potency was active: 13 µM. For `CC(=O)c1cc2c(cc1NC(=O)CSc1ccc(S(=O)(=O)N(C)C)cn1)OCO2`, the Potency was inconclusive [inhibitor, partial curve]. With `Cc1ccnn1CCC(=O)N1CCCC(N2CCN(c3cccc(Cl)c3)CC2)C1` (configuration not stated) the Potency was inconclusive [inhibitor, single point]. In the case of `CC(=O)C(C)Oc1ccc2c3c(c(=O)oc2c1C)CCCC3` (configuration not stated), the Potency is reported as inconclusive [inhibitor, single point]. With `Cc1ccccc1-n1c(C)cc(/C=C(\C#N)C(=O)NCC2CCCO2)c1C` (configuration not stated) the Potency was active: 11.6 µM. In the case of `COCOCCn1cc(CN2CCS(=O)(=O)N(Cc3ccc(-c4ccc(Cl)cc4)cc3)C(CC(C)C)C2=O)nn1` (configuration not stated), the Potency is reported as active: 23.1 µM. With `COc1cc(OC)cc(C(=O)N2CCN(c3ccccc3F)CC2)c1` the Potency was inconclusive [inhibitor, single point]. In the case of `CC(=O)Nc1cc(-c2ccc(N)cc2)cn2c(-c3cccc(C(F)(F)F)c3)cnc12`, the Potency is reported as active: 16.4 µM. For `COc1ccc(S(=O)(=O)N2CCN(CC(=O)Nc3ccccc3Cl)CC2)cc1`, the Potency was “inactive”. For `CCC(=O)N1CCc2cc(Br)cc(S(=O)(=O)NCc3ccccc3)c21`, the activity change, negative = growth inhibition was inconclusive: -30.4% [inhibitor]. With `Cc1nc(-c2cccc(NC(=O)c3ccc(-n4nccc4C)cc3)c2)cs1` the Potency was active: 20.6 µM. In the case of `O=C(CCCCCn1c(=O)[nH]c2ccccc2c1=O)NCc1ccc(Cl)cc1`, the Potency is reported as inconclusive [inhibitor, single point]. With `c1ccc(CNc2ncnc3ccc(-c4ccc5c(c4)OCO5)cc23)cc1` the Potency was inconclusive [inhibitor, single point]. For `Cc1cccc(NC(=O)NC(=S)NC(=O)c2ccccc2)c1`, the Potency was inconclusive [inhibitor, single point]. With `NC(=O)c1cc2ccccc2o/c1=N\NC(=O)c1ccccc1O` the Potency was inconclusive [inhibitor, full curve]. In the case of `O=C(COc1ccccc1)N[C@@H]1c2ccccc2CC[C@H]1OCc1ccccc1`, the Potency is reported as active: 25.9 µM. With `O=c1c(O)c(-c2ccccc2)oc2cc(O)cc(O)c12` the Potency was active: 29.9 µM. For `C[C@@H]1CN(Cc2nnnn2CC(=O)NCCCn2cccn2)C[C@H](C)O1`, the Potency was “inactive”. In the case of `COc1cccc(CN(C)C(=O)c2ccc(S(=O)(=O)Nc3cccc(C)c3C)cc2)c1OC`, the Potency is reported as active: 18.4 µM. For `CCCCCCN(C(=O)CCCN1C(=O)NC(c2ccc(-c3ccccc3)cc2)C(C(=O)OCc2ccccc2)=C1C)C(C)C(=O)NCCCC` (configuration not stated), the Potency was active: 16.4 µM. With `COc1ccccc1-c1nc(SCC(=O)Nc2ccc(C)c(C)c2)n[nH]1` the Potency was active: 23.1 µM. For `Cc1cc(N2CCOCC2)nc2ccc(NC(=S)NCCC(C)C)cc12`, the Potency was active: 20.6 µM. For `CCCc1nc(NCc2ccc3c(c2)OCO3)c2nnn(Cc3ccccc3Cl)c2n1`, the Potency was inconclusive [inhibitor, single point]. For `CCOC(=O)c1ccc(N=Cc2nc(-c3ccccc3)oc2OC(C)=O)cc1`, the Potency was active: 6.51 µM. With `Cc1ccc(CN2CCC2(C)C(=O)NC2CCc3ccccc32)cc1` (configuration not stated) the Potency was active: 23.1 µM. For `O=C(NCC1CCCCC1)NCC1CCCCC1`, the Potency was inconclusive [inhibitor, single point]. In the case of `CN1C(CC(=O)Nc2ccc(Cl)cc2Cl)c2ccccc2CC1(C)C` (configuration not stated), the Potency is reported as active: 16.4 µM. In the case of `Cn1c(N)c(C(=O)COC(=O)COc2ccccc2Cl)c(=O)n(C)c1=O`, the Potency is reported as “inactive”. With `Cc1ccccc1OC(=O)Cn1c(C(F)(F)F)nc2ccccc21` the Potency was inconclusive [inhibitor, single point]. For `CCOc1ccc(NC(=O)CCC(=O)c2ccc(OC)cc2)cc1`, the Potency was “inactive”. With `NC(=S)Cc1nc(-c2ccccc2)cs1` the Potency was inconclusive [inhibitor, single point]. In the case of `O=C(O)CN1CCNCCN(CC(=O)O)CCNCC1`, the Potency is reported as inconclusive [inhibitor, single point]. For `COc1ccccc1C1CN(CCNC(=O)c2ccc3c(c2)OCCO3)Cc2ccccc2O1` (configuration not stated), the Potency was inconclusive [inhibitor, single point]. With `CCCC[C@@H]1C[C@H]1[C@@H](NC(=O)c1ccco1)c1ccccc1C(F)(F)F` the Potency was inconclusive [inhibitor, single point]. With `O=C(O)c1ccccc1-c1ccccc1C(=O)NCc1cccnc1` the Potency was “inactive”. For `C=CCN(C(=O)c1csnn1)C(C(=O)NC1CCCC1)c1ccc(Cl)cc1` (configuration not stated), the Potency was “inactive”. In the case of `NCc1csc(NC(=O)Nc2cccc(Cl)c2)n1`, the Potency is reported as inconclusive [inhibitor, single point]. For `O=C(Nc1cccnc1)c1ccc(S(=O)(=O)N2CCCCCC2)cc1`, the Potency was inconclusive [inhibitor, full curve, poor fit]. In the case of `N#C/C(=C/c1ccc(O)c([N+](=O)[O-])c1)C(=O)Nc1ccccc1`, the Potency is reported as active: 6.51 µM. For `COc1cc(-c2ccc3oc(-c4ccsc4)c(C#CC4(O)CCCCC4)c3c2)cc(OC)c1OC`, the Potency was inconclusive [inhibitor, single point]. For `COc1cccc(C(=O)Nc2ncc3c(n2)CC(C)(C)CC3=O)c1`, the Potency was active: 16.4 µM. For `Cc1ccc(S(=O)(=O)N2CCN(C(=O)CN3C(=O)NC4(CCOc5ccccc54)C3=O)CC2)cc1` (configuration not stated), the Potency was “inactive”. In the case of `Cc1ccc(/C(N)=N/OC(=O)Cc2cccc3ccccc23)cc1`, the Potency is reported as inconclusive [inhibitor, single point]. In the case of `Cc1cc(=O)oc2c3c(ccc12)OCN(Cc1ccc(Cl)cc1)C3`, the Potency is reported as inconclusive [inhibitor, single point]. For `C/C=C(\NNC(C)=O)c1ccc(O)cc1`, the Potency was inconclusive [inhibitor, single point]. With `CCOCCCNCc1cn(-c2ccc(F)cc2F)nc1-c1ccccc1C` the Potency was active: 16.4 µM. With `COC(=O)c1c(C)[nH]c(C(=O)OC(C)C(=O)N(C)C2CCCCC2)c1C` (configuration not stated) the Potency was active: 16.4 µM.
